Reference: PubChem BioAssay AID504339 (National Center for Advancing Translational Sciences (NCATS), 2011)
Several values for one entry are separate records, joined by “and”; a condition that tells them apart may be missing. Identical values can stand only once. About 17,000 (4.4%) of roughly 390,000 compounds were called active. The inconclusive results got no clear call from the source; some entries with a clear call stand among them for comparison. Calls follow the shape of the dose curve; as a rule, active = well fitted inhibition curve with a large enough effect; inconclusive = small, poorly fitted or top-dose-only effect; inactive = no such curve, though single readings can be large or run the other way. A potency beside an inconclusive call is a rough fit, not a confirmed value.

What follows are compounds tested against Lysine-specific demethylase 4A (Homo sapiens) (UniProt O75164) (assay: qHTS Assay for Inhibitors of JMJD2A-Tudor Domain). Settings: AlphaScreen JMJD2A-Tudor / H3K4me3 peptide binding; activity change, negative = inhibition: at 114 µM (top of the series).
Chain of UniProt O75164 (O75164 whole entry, looked up, the tested form may be a part): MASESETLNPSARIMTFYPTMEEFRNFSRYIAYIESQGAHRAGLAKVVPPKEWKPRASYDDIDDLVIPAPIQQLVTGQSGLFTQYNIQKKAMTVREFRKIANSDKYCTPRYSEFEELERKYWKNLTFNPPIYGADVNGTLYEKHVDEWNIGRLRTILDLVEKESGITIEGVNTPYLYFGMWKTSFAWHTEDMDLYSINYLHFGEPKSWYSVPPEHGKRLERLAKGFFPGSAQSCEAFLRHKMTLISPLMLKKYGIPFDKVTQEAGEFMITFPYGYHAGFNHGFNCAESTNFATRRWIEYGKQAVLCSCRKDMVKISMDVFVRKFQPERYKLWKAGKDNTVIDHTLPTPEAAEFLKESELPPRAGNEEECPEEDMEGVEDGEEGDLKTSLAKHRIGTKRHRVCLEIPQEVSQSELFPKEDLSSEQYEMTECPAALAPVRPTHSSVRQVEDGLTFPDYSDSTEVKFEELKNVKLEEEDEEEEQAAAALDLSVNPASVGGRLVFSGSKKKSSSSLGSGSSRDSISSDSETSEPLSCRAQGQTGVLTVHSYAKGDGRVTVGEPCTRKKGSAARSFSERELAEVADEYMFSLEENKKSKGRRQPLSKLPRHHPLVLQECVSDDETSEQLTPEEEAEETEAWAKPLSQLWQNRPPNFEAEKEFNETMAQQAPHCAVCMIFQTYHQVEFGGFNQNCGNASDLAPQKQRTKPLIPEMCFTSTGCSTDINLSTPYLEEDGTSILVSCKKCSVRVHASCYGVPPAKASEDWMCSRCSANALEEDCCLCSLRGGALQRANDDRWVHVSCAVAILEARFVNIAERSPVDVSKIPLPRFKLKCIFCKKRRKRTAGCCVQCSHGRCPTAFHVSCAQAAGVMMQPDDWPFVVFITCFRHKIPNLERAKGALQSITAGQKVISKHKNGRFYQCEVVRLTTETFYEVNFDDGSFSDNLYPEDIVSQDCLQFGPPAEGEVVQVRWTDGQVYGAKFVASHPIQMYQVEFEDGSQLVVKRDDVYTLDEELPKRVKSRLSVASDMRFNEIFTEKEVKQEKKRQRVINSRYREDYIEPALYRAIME
% is scaled to controls: 0 for no effect and ±100 for the full control effect; potency is read from the fitted curve at half-maximal effect; tags tell the direction and shape of the fitted curve.
Also: nearly all actives have a fitted effect of over 50% in size.

Compound	Potency	activity change, negative = inhibition
COc1ccc(-c2coc3cc(OC(C)=O)ccc3c2=S)cc1	active: 44.7 µM	
Cc1ccc(C(C)C)c(OCC(O)CN2CC(C)OC(C)C2)c1 (stereo not drawn)	inactive	
Cn1c(=O)c2c(SCC(=O)NCC3CCCO3)nc(-c3ccccc3F)nc2n(C)c1=O (stereo not drawn)	inactive	
COc1cc2c(ccc3cc(OC)c(OC)c(O)c32)cc1O	active: 10 µM	
CCC(NC(=O)COc1cc2c(c3oc(=O)c(C)c(C)c13)CCC(C)(C)O2)C(=O)O (stereo not drawn)	inactive	
COc1cc(OC)cc(C(=O)NCc2ccc3c(c2)cc(C)n3C)c1	inconclusive: 56.2 µM [inhibitor, partial curve]	
COc1cccc(S(=O)(=O)NCc2ccc(C(=O)Nc3ccc(Cl)cc3)cc2)c1	inconclusive: 35.5 µM [inhibitor, single point]	
O=C(NCCN1C(=O)S/C(=C\c2cccc(Cl)c2Cl)C1=O)C1=COCCO1	inconclusive: 100 µM [inhibitor, single point]	
COc1ccccc1Nc1nc(-c2sc(NC(=O)CC(C)C)nc2C)cs1	inconclusive: 89.1 µM [inhibitor, partial curve]	
NS(=O)(=O)c1ccc(CCNC(=O)CCc2nc3ccccc3s2)cc1	inactive	
Cc1ccc(S(=O)(=O)Cc2ccc(C(=O)N3CCN(c4cc(C)ccc4C)CC3)o2)cc1	inconclusive: 50.1 µM [inhibitor, partial curve]	
CN(C)CCNC(=O)NC1CCCCC1	inactive	
CN1CC=C2C(C#N)=C(N)C(C#N)(C#N)C(Cc3ccccc3)C2C1 (stereo not drawn)	inactive	
O=C(CSc1nnc(COc2ccccc2)n1-c1ccccc1)c1ccccc1	inconclusive: 63.1 µM [inhibitor, partial curve, poor fit]	
COc1ccc(S(=O)(=O)Nc2cccc3c2O[C@H](CN(C)C(=O)Nc2ccc(C(F)(F)F)cc2)[C@@H](C)CN([C@H](C)CO)C3=O)cc1	inactive	
CC(C)CN1C(=O)c2ccccc2C1(O)Cc1ccccc1 (stereo not drawn)	inactive	
O=C(N/N=C/c1sc2ccccc2c1O)c1ccccc1	inconclusive: 56.2 µM [inhibitor, partial curve]	
COC(=O)c1ccc(NC(=O)CCc2nnc3ccc(N4CCC5(CC4)OCCO5)nn23)cc1	inactive	
O=C(/C=C(\O)c1ccc(Cl)cc1)C(=O)NNC(=O)C(O)(c1ccccc1)c1ccccc1	inconclusive: 56.2 µM [inhibitor, partial curve]	
CCN1CC=C2C(C#N)=C(N)C(C#N)(C#N)C(CCc3ccccc3)C2C1 (stereo not drawn)	inconclusive: 79.4 µM [inhibitor, partial curve]	
CC1(C)Cc2nc3oc4c(SCC(N)=O)ncnc4c3cc2CO1	inactive	
CCOC(=O)c1c(C)[nH]c(C)c1C(=O)COC(=O)c1ccc(S(=O)(=O)N(CC)CC)cc1	inconclusive: 79.4 µM [inhibitor, partial curve]	
Cc1ccccc1-c1nnn(C/C(N)=N/O)n1	inactive	
CCOC(=O)N1CCc2c(sc3c2c(=O)n(Cc2ccccc2)c(=O)n3CC(=O)Nc2ccccc2F)C1	inactive	
O=C(c1cccc(F)c1)N1CCC(N2CCOCC2)CC1	active: 7.94 µM	

Compound	Potency	activity change, negative = inhibition
O=c1/c(=C/c2ccco2)sc2n1CN(c1cccc(Br)c1)CN=2	inconclusive: 44.7 µM [inhibitor, partial curve]	
COc1ccccc1OCc1nc(-c2ccc([N+](=O)[O-])cc2)no1	inconclusive: 28.2 µM [inhibitor, full curve]	
CCOC(=O)c1c(C)[nH]c(CCC(=O)Nc2ccc(N(CC)CC)cc2C)c1C	inconclusive: 56.2 µM [inhibitor, partial curve, poor fit]	
O=C(O)c1ccc(Nc2nc(-c3ccccc3)nc3ccccc23)cc1	active: 39.8 µM	
O=C(CSc1nnc(CNc2ccc(F)cc2)o1)OC1CCCCC1	inconclusive: 35.5 µM [inhibitor, partial curve]	
CC(=O)c1cccc(CN2CCN(CC(C)C)C(CCO)C2)c1 (stereo not drawn)	inactive	
COc1ccc(Br)cc1CN1CCCC(C(=O)N2CCCCCC2)C1 (stereo not drawn)	inconclusive: 0.794 µM [inhibitor, full curve, poor fit]	
Cc1ccc(C2c3[nH]c4ccccc4c3CCN2C(=O)c2ccc(N(C)C)cc2)cc1 (stereo not drawn)	inconclusive: 31.6 µM [inhibitor, partial curve]	
O=C(Cn1cnc2cc([N+](=O)[O-])ccc2c1=O)N(Cc1ccccc1)C1CCS(=O)(=O)C1 (stereo not drawn)	inactive	
COC(=O)C1=C(CSc2nc3c(cc2C#N)CN(C)CC3)OC(N)=C(C#N)C1c1ccccc1F (stereo not drawn)	inconclusive: 56.2 µM [inhibitor, partial curve, poor fit]	
CCOC(=O)c1cc(-c2ccccc2)nn1Cc1ccccc1	inactive	
Cc1cc(=O)[nH]c(N/N=C/c2ccc(C)o2)n1	active: 56.2 µM	
COc1ccc(C(=O)c2c3ccccc3[n+]([O-])n2Cc2ccc(C(N)=O)cc2)cc1	inconclusive: 100 µM [inhibitor, partial curve]	
O=C(c1cccs1)N(Cc1ccco1)Cc1cc2ccccc2[nH]c1=O	inconclusive: 39.8 µM [inhibitor, single point]	
O=C(O)c1cccc(-n2cccc2/C=C/[N+](=O)[O-])c1	active: 22.4 µM	
CCOc1ccc2c(c1)nc(SCC(=O)c1ccc(Br)s1)n2C	active: 39.8 µM	
COc1ccc(N2CCN(C(=O)c3cc4c(=O)n(Cc5cccs5)ccc4nc3C)CC2)cc1	inconclusive: 56.2 µM [inhibitor, partial curve, poor fit]	
O=C(O)c1ccc2c3c(cccc13)C(=O)N(c1cccc3ccccc13)C2=O	inactive	
Nc1ccc(Oc2ccc3nc(-c4ccccc4)c(-c4ccccc4)nc3c2)cc1	inconclusive: 39.8 µM [inhibitor, partial curve]	
O=C(Cc1cccc(C(F)(F)F)c1)Nc1cccc(S(=O)(=O)N2CCCC2)c1	inactive	
COc1ccc(C(=O)NC(CCSC)C(=O)N2CCCCCC2)cc1 (stereo not drawn)	inactive	
CCc1nn(CC(=O)NCCCN2CCOCC2)c(=O)c2cc3cc(F)ccc3n12	inactive	
COc1ccc(-n2nc(C(=O)NCC(=O)NC(C)C)c3ccccc3c2=O)cc1Cl	inactive	
C/C(Cn1cnc([N+](=O)[O-])n1)=N\NC(=O)c1cccnc1	inconclusive: 14.1 µM [inhibitor, single point]	
COc1ccc(NCc2nc3ccccc3n2CCOc2ccc(C)cc2)cc1	active: 17.8 µM and active: 11.2 µM	

Compound	Potency	activity change, negative = inhibition
Cc1ccc(NC(=O)c2sc(N)nc2-c2ccccc2)cc1C	inconclusive: 50.1 µM [inhibitor, partial curve]	
S=c1[nH]nc(-c2ccncc2)n1/N=C/c1ccccc1	active: 7.94 µM	
O=C(COc1ccccc1)NC(Cc1c[nH]c2ccccc12)C(=O)O (stereo not drawn)	inactive	
NC(=O)COc1ccc(C(=O)/C=C2/C(=O)Nc3ccccc32)cc1	inconclusive: 35.5 µM [inhibitor, partial curve]	
CCOc1[nH]n(-c2ccccc2)c(=O)c1C=Nc1ccc(Cl)cc1	inconclusive: 1.78 µM [inhibitor, partial curve, poor fit]	
CC(C)Cc1csc(=S)[nH]1	active: 3.98 µM	
COc1ccc(-c2sc(Nc3ccccc3)n[n+]2-c2ccc(F)cc2)c(C)c1C	inconclusive: 56.2 µM [inhibitor, partial curve]	
Cn1cnc(C(=O)N2CCc3ccccc3C2)c1C(=O)N1CCc2ccccc2C1	active: 15.8 µM	
CCOc1ccccc1NC(=O)CSc1nnc(Cc2cccn2C)n1-c1ccc(F)cc1	inconclusive: 89.1 µM [inhibitor, partial curve]	
CCN(CC)S(=O)(=O)c1cc(C(=O)OCC(=O)Nc2c(F)cccc2F)ccc1F	inactive	
Cn1c(=O)n(Cc2ccccc2)c(=O)c2c1nc(NCC1CCCO1)n2Cc1ccccc1 (stereo not drawn)	inconclusive: 100 µM [inhibitor, partial curve]	
O=c1cc(N2CCCCC2)c(-c2ccccc2)nn1Cc1ccc(Cl)cc1Cl		inactive: -13% [at 11.4 µM]
Cc1ccccc1C1CC(c2ccc(Br)cc2)Nc2nc(N)nn21 (stereo not drawn)	inconclusive: 50.1 µM [inhibitor, partial curve]	
O=C(NC(Cc1ccccc1)C(=O)O)/C(=C/c1cccc([N+](=O)[O-])c1)NC(=O)c1cccc(Br)c1 (stereo not drawn)	inactive	
COc1ccc(S(=O)(=O)Nc2c(C(=O)O)[nH]c3ccc(OC)cc23)cc1	active: 20 µM	
COc1ccc(-c2nc(CSCC(=O)NCc3ccco3)c(C)o2)cc1	inconclusive: 56.2 µM [inhibitor, partial curve]	
COc1ccc(S(=O)(=O)N(C(=O)c2ccco2)c2cc3sc(=O)oc3c3ccccc23)cc1	inconclusive: 63.1 µM [inhibitor, partial curve, poor fit]	
COc1cc(CN2CCNC(=O)C2CC(=O)NCCC2=CCCCC2)cc(OC)c1 (stereo not drawn)	inactive	
CC1CN(C2CCCCC2)C(=O)NC1=O (stereo not drawn)	inactive	
Cc1ccccc1CSc1nnc(-c2ccco2)n1Cc1ccco1	inconclusive: 56.2 µM [inhibitor, partial curve]	
COc1ccccc1/C=C/[C@@H]1C[C@H]2CN(Cc3cccc(Cl)c3)C(=O)[C@]23CCCN13		inconclusive: -56.9% [inhibitor]
CCOc1ccc(C(O)c2nccn2C)cc1 (stereo not drawn)	inconclusive: 17.8 µM [inhibitor, partial curve]	
O=C(NC1(C(F)(F)F)C(=O)Nc2c1c(=O)[nH]c(=O)n2Cc1ccco1)C1CCCCC1 (stereo not drawn)	active: 79.4 µM	
